Laboratory results reported in the antibiotic and cytotoxicity screens of Wong et al. (2023).
This is one part of the list.

Assays:
[1] = tested on: HSkMC (human skeletal muscle cells); assay: cytotoxicity call (relative viability < 0.9); conditions: 10 µM
[2] = tested on: HepG2; assay: cytotoxicity call (relative viability < 0.9); conditions: 10 µM
[3] = tested on: S. aureus RN4220; assay: growth inhibition call (relative growth <= 0.2); conditions: 50 µM

| Structure (SMILES) | cytotoxicity call [1] | cytotoxicity call [2] | growth inhibition call [3] |
| --- | --- | --- | --- |
| C[C@H](CO)N1C[C@H](C)[C@@H](CN(C)Cc2ccc(Oc3ccccc3)cc2)Oc2ccc(NC(=O)NC3CCCCC3)cc2CC1=O | inactive | inactive | inactive |
| COCCCNC(=O)[C@@]1(Sc2ccc(C)cc2)CC(=O)N(Cc2ccccc2Cl)[C@@H]1c1ccc(CO)cc1I | inactive | inactive | inactive |
| C[C@@H]1CN([C@H](C)CO)S(=O)(=O)c2ccc(C#CC3(O)CCCC3)cc2O[C@H]1CN(C)C(=O)c1ccccc1 | inactive | inactive | inactive |
| C[C@@H]1CCCCO[C@@H](CN(C)C(=O)Nc2ccc3c(c2)OCO3)[C@H](C)CN([C@H](C)CO)C(=O)c2cc(NS(=O)(=O)c3cccs3)ccc2O1 | inactive | inactive | inactive |
| NC(CC(=O)O)C(=O)O (stereo not drawn) | inactive | inactive | inactive |
| Cc1noc(C)c1S(=O)(=O)Nc1ccc2c(c1)CC(=O)N([C@@H](C)CO)C[C@@H](C)[C@H](CN(C)Cc1ccncc1)O2 | inactive | inactive | inactive |
| COc1ccc(NC(=O)N(C)C[C@@H]2Oc3ccc(NC(=O)C4CC4)cc3C(=O)N([C@H](C)CO)C[C@H]2C)cc1 | inactive | inactive | inactive |
| CCS(=O)(=O)N1C[C@]2(C1)CN([C@@H](CO)c1c2c2ccc(cc2n1C)OC)C(=O)Nc1cccc(c1)F | inactive | inactive | inactive |
| CC(C)NC(=O)Nc1ccc2c(c1)CC(=O)N([C@H](C)CO)C[C@@H](C)[C@H](CN(C)Cc1ccc(Oc3ccccc3)cc1)O2 | inactive | inactive | inactive |
| COc1cccc(CNC(=O)c2cc3c(c(-c4cccc(-c5ccc(C#N)cc5)c4)n2)[C@@H](CCO)N([S@](=O)C(C)(C)C)C3)c1 | active | inactive | inactive |
| O=C(C[C@@H]1CC[C@@H]2[C@H](COC[C@H](O)CN2C(=O)c2cccnc2)O1)NCC1CC1 | inactive | inactive | inactive |
| NC(=O)NC(=O)Cc1ccccc1 | inactive | inactive | inactive |
| COC(=O)c1ccccc1N(C)S(C)(=O)=O | inactive | inactive | inactive |
| COc1ccc(S(=O)(=O)Nc2cccc3c2O[C@H](CN(C)S(=O)(=O)c2ccccc2)[C@@H](C)CN([C@H](C)CO)C3=O)cc1 | inactive | inactive | inactive |
| COc1ccc([Si](C)(C)[C@@H]2[C@@H](CCO)O[C@]3(C(=O)N(Cc4ccc(N(C=O)c5ccccc5)cc4)c4ccccc43)[C@H]2C)cc1 | inactive | active | inactive |
| CN[C@@H]1[C@H](O)[C@H](NC)[C@H]2O[C@@]3(O)C(=O)C[C@@H](C)O[C@H]3O[C@@H]2[C@H]1O | inactive | inactive | inactive |
| C[C@H](CO)N1C[C@H](C)[C@H](CN(C)C(=O)NC2CCCCC2)Oc2c(NC(=O)C3CC3)cccc2C1=O | inactive | inactive | inactive |
| O=C(C[C@@H]1CC[C@H]2[C@@H](COC[C@H](O)CN2C(=O)Nc2ccc(C(F)(F)F)cc2)O1)NCc1ccncn1 | inactive | inactive | inactive |
| O=C(O)c1cccc(-n2cnnn2)c1 | inactive | inactive | inactive |

| Structure (SMILES) | cytotoxicity call [1] | cytotoxicity call [2] | growth inhibition call [3] |
| --- | --- | --- | --- |
| C[C@@H]1CN([C@H](C)CO)C(=O)c2cc(NC(=O)CCCCCC(=O)Nc3ccccc3N)ccc2O[C@@H]1CN(C)S(=O)(=O)c1cn(C)cn1 | inactive | inactive | inactive |
| COc1ccc(S(=O)(=O)Nc2ccc3c(c2)C(=O)N([C@@H](C)CO)C[C@H](C)[C@@H](CN(C)C(=O)Nc2ccc(F)cc2)OCCCC[C@H](C)O3)cc1 | inactive | active | inactive |
| Cc1cc(O[C@@H](CCC(F)(F)F)c2ccc(C(=O)NCCC(=O)O)cc2)cc(C)c1-c1ccc(C(C)(C)C)cc1 | active | inactive | active |
| CC(O)CC(C)(C)O (stereo not drawn) | inactive | inactive | inactive |
| C[C@H](CO)N1C[C@H](C)[C@H](CN(C)Cc2cccc(C(F)(F)F)c2)OCc2ccccc2-c2ccccc2C1=O | inactive | inactive | inactive |
| C[C@@H]1CN([C@@H](C)CO)C(=O)c2cccc(NC(=O)c3ccc(-c4nccs4)cc3)c2O[C@@H]1CN(C)Cc1ccc(C(F)(F)F)cc1 | inactive | active | inactive |
| COc1ccccc1CNC(=O)C[C@@H]1C[C@H]2c3cc(NC(=O)NC4CCCC4)ccc3O[C@H]2[C@@H](CO)O1 | inactive | inactive | inactive |
| C[C@H]1CCCCO[C@H](CN(C)Cc2ccc(Cl)c(Cl)c2)[C@@H](C)CN([C@@H](C)CO)C(=O)c2cc(NC(=O)Nc3ccc4c(c3)OCO4)ccc2O1 | inactive | active | inactive |
| Cc1ccc(S(=O)(=O)N(C)C[C@H]2Oc3c(NC(=O)Nc4cccc5ccccc45)cccc3C(=O)N([C@@H](C)CO)C[C@@H]2C)cc1 | inactive | inactive | inactive |
| C[C@H](CO)N1C[C@H](C)[C@H](CN(C)C(=O)Nc2ccc(C(F)(F)F)cc2)Oc2c(NC(=O)CCCCCC(=O)Nc3ccccc3N)cccc2C1=O | inactive | inactive | inactive |
| COc1ccc(S(=O)(=O)Nc2ccc3c(c2)CC(=O)N([C@@H](C)CO)C[C@@H](C)[C@H](CN(C)CC2CC2)O3)cc1 | inactive | inactive | inactive |
| C[C@@H]1CN([C@@H](C)CO)C(=O)Cc2cc(NS(C)(=O)=O)ccc2O[C@H]1CN(C)Cc1ccc(C(=O)Nc2ccccc2N)cc1 | inactive | inactive | inactive |
| C[C@@H]1CCCCO[C@H](CN(C)Cc2ccc3c(c2)OCO3)[C@@H](C)CN([C@H](C)CO)C(=O)c2cc(NC(=O)Cc3ccccc3)ccc2O1 | inactive | inactive | inactive |
| CC(C)Cc1ccc(CN2CC[C@@H](N)C2)cc1 | inactive | inactive | inactive |
| NNC(=S)Nc1ccccc1 | inactive | inactive | inactive |
| C[C@H](CO)N1C[C@H](C)[C@@H](CN(C)Cc2ccncc2)Oc2ccc(NC(=O)CCN3CCOCC3)cc2C1=O | inactive | inactive | inactive |
| CO[C@@H](CN(C)S(=O)(=O)c1ccc(Cl)cc1)[C@H](C)CN([C@@H](C)CO)S(=O)(=O)c1cccc(Cl)c1 | inactive | inactive | inactive |
| CC(C)NC(=O)N(C)C[C@H]1Oc2ccc(NC(=O)Cn3cnnn3)cc2C(=O)N([C@@H](C)CO)C[C@H]1C | inactive | inactive | inactive |
| COc1ccc(C=Cc2cc(O)cc(O[C@@H]3O[C@H](CO)[C@@H](O)[C@H](O)[C@H]3O)c2)cc1 | inactive | inactive | inactive |

| Structure (SMILES) | cytotoxicity call [1] | cytotoxicity call [2] | growth inhibition call [3] |
| --- | --- | --- | --- |
| C[C@@H]1CCCCO[C@@H](CN(C)C(=O)Nc2ccc3c(c2)OCO3)[C@@H](C)CN([C@@H](C)CO)C(=O)c2cc(NC(=O)NC3CCCCC3)ccc2O1 | inactive | inactive | inactive |
| CSc1ccccc1CN | inactive | inactive | inactive |
| CC(OC1OCCN(C(C)c2nc(=O)[nH][nH]2)C1c1ccc(F)cc1)c1cc(C(F)(F)F)cc(C(F)(F)F)c1 (stereo not drawn) | inactive | active | inactive |
| COc1ccc(NC(=O)Nc2ccc3c(c2)C(=O)N([C@@H](C)CO)C[C@@H](C)[C@H](CN(C)C(=O)NC2CCCCC2)OCCCC[C@@H](C)O3)cc1 | inactive | inactive | inactive |
| C[C@H]1CN([C@@H](C)CO)C(=O)c2cc(NC(=O)Nc3ccccc3)ccc2O[C@H]1CN(C)C(=O)Nc1ccc(C(F)(F)F)cc1 | inactive | inactive | inactive |
| CC(C)CC[C@@H](O)[C@H]1C[C@@H](CO)OC1=O | inactive | inactive | inactive |
| C[C@H]1CN([C@@H](C)CO)C(=O)c2cc(NC(=O)Cn3cnnn3)ccc2O[C@@H]1CN(C)Cc1ccc2c(c1)OCO2 | inactive | inactive | inactive |
| NS(=O)(=O)c1ccc(CCn2ccn(CC(=O)NCCC3=CCCCC3)c(=O)c2=O)cc1 | inactive | inactive | inactive |
| CCCC#Cc1cnc2c(c1)C(=O)N([C@@H](C)CO)C[C@H](C)[C@H](CN(C)S(=O)(=O)c1cn(C)cn1)O2 | inactive | inactive | inactive |
| C[C@H](CO)N1C[C@H](C)[C@H](CN(C)C(=O)Nc2cccc(F)c2)OCCCC[C@H](C)Oc2ccc(NC(=O)C3CCCCC3)cc2C1=O | inactive | inactive | inactive |
| C[C@H](NC(=O)N(C)C[C@@H]1OCc2ccccc2-c2c(n(C)c3ccccc23)C(=O)N([C@@H](C)CO)C[C@@H]1C)c1ccccc1 | inactive | inactive | inactive |
| C[C@@H]1CN([C@@H](C)CO)C(=O)c2c(c3ccccc3n2C)-c2ccccc2CO[C@@H]1CN(C)S(=O)(=O)c1ccc(C(F)(F)F)cc1 | inactive | inactive | inactive |
| COc1ccc(NC(=O)Nc2ccc3c(c2)C(=O)N([C@H](C)CO)C[C@@H](C)[C@@H](CN(C)Cc2ccc(Cl)c(Cl)c2)O3)cc1 | inactive | inactive | inactive |
| COc1ccc(NC(=O)N(C)C[C@H]2OCCCC[C@H](C)Oc3ccc(NC(=O)C4CCCCC4)cc3C(=O)N([C@H](C)CO)C[C@H]2C)cc1 | inactive | inactive | inactive |
| C[C@H](CO)N1C[C@H](C)[C@@H](CN(C)Cc2ccc3c(c2)OCO3)Oc2cc(C#CCN(C)C)ccc2S1(=O)=O | inactive | inactive | inactive |
| O=C1O[C@H](c2ccccc2)[C@H](c2ccccc2)N2[C@H]1[C@@H](C(=O)NC[C@H](O)c1ccccc1)[C@]1(C(=O)Nc3ccc(C#CC4(O)CCCCCC4)cc31)[C@H]2c1ccc(O)cc1 | inactive | inactive | inactive |
| C[C@H]1CCCCO[C@@H](CN(C)C(=O)Nc2ccc(C(F)(F)F)cc2)[C@@H](C)CN([C@@H](C)CO)C(=O)c2cc(NC(=O)Nc3ccccc3)ccc2O1 | inactive | inactive | inactive |
| C[C@@H]1CN([C@@H](C)CO)C(=O)c2cc(NC(=O)CCC(F)(F)F)ccc2O[C@@H](C)CCCCO[C@@H]1CN(C)Cc1ccncc1 | inactive | inactive | inactive |
